# Results taken from PubChem BioAssay AID686970 (National Center for Advancing Translational Sciences (NCATS), 2013).
# Out of some 360,000 compounds screened, about 6,000 (1.7%) were called active. Inconclusive results, whose numbers are uncertain, are shown with a selection of clear calls. Calls come from the whole dose curve; as a rule, active = well fitted cell-killing curve with a large enough effect; inconclusive = small, poorly fitted or top-dose-only effect, or effect the other way; inactive = flat fitted curve, though single readings scatter. Potencies of inconclusive entries are left out as doubtful fits.
# Assay: qHTS for induction of synthetic lethality in tumor cells producing 2HG: qHTS for the HT-1080-NT fibrosarcoma cell line;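 note: NT is the 2HG producing partner of a matched IDH1 knockdown line; nearly all actives have a fitted effect of over 55% in size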;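 for activity, negative = less viability: 0% = DMSO-treated cells and -100% = media-only wells without cells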
# Settings: HT-1080-NT fibrosarcoma viability, CellTiter-Glo ATP luminescence, 48 h; activity, negative = less viability: at 46.1 µM (top of the series) unless noted
# Outline: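 Fibrosarcoma NT cells, 750 per well in 5% FBS RPMI, were exposed to compound for 48 hours. Viability: CellTiter-Glo luminescence.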
# Potency is the fitted concentration of half-maximal effect; tags give direction and shape of the fitted curve.
SMILES,Potency,"activity, negative = less viability"
COc1ccccc1N1CCN(C2CCCN(C(=O)c3oc(C)cc3C)C2)CC1 (configuration not stated),inactive,
CSc1ccc(CN(C)CC(=O)NC(C)c2ccccc2)cc1 (configuration not stated),inactive,
O=C(NCc1ccc(F)cc1)c1cc(C2CCCCN2C(=O)c2ccc3c(c2)CCO3)on1 (configuration not stated),inactive,
Cc1ccc(OS(=O)Nc2cccc3nccnc23)cc1 (configuration not stated),active: 11.2 µM,
Cc1ccccc1N(CC(=O)Nc1ccccc1C(=O)NCc1ccco1)S(=O)(=O)c1ccccc1,"inconclusive [cytotoxic, single point]",
CCc1ccc(OC2=NS(=O)(=O)c3ccccc32)cc1,inactive,
Cc1cc2c(cc1C)/C(=N/NC(=O)c1ccccn1)CCC2,inactive,
CCc1ccc(OCC(=O)Nc2ccncc2)c(Br)c1,"inconclusive [cytotoxic, partial curve]",
Cc1cc(C(=O)COC(=O)c2nn(C)c(=O)c3ccccc23)c(C)n1C,inactive,
Cc1ccc2cc(C#N)c(N3CCCN(C(=S)NCCCN(C)C)CC3)nc2c1,active: 20.6 µM,
NS(=O)(=O)c1ccc(CCNCc2cc(Cl)ccc2OCc2ccccc2)cc1,"inconclusive [cytotoxic, single point]",
COc1ccc(C(NC(=O)C2CCN(CCc3ccccc3)CC2)c2ccccn2)cc1 (configuration not stated),,inconclusive: 23.8%
COc1ccc(C(=O)N(C)C2CCCc3ccccc32)cc1OC1CCN(C(C)C)CC1 (configuration not stated),inactive,
Cc1cccnc1Nc1nc(-c2ccc(O)cc2O)cs1,"inconclusive [cytotoxic, single point]",
CNc1snc(C)c1C(=O)OCC(=O)Nc1ccc(C)cc1F,inactive,
Cc1cc(=O)oc2c1ccc1oc(/C(=N/O)c3ccccc3)c(C)c12,"inconclusive [cytotoxic, single point]",
O=C(NNC1=C(C(=O)C(F)(F)F)CCC1)c1ccccc1O,active: 23.1 µM,
Cc1nn(C)c(C(=O)NNC(=O)Nc2cccc(C(F)(F)F)c2)c1Cl,"inconclusive [cytotoxic, single point]",
CNC(=O)C1(C)CCN1C(=O)Cc1ccc(C(C)C)cc1 (configuration not stated),"inconclusive [rising, partial curve, poor fit]",
COc1ccc(C(CNC(=O)Nc2ccc(Cl)cc2)N2CCN(C)CC2)cc1 (configuration not stated),"inconclusive [cytotoxic, single point]",
COc1cccc(-n2ccnc2SCC(=O)Nc2ccccc2F)c1,inactive,
CCOC(=O)[C@]12CCCC=C1N(Cc1ccccc1)C(=O)[C@H](CC(=O)NCC13CC4CC(CC(C4)C1)C3)C2,"inconclusive [cytotoxic, single point]",
CN(C)CCCNc1nc2cc(-c3ccc4c(ccn4C)c3)sc2c(=O)n1C,"inconclusive [cytotoxic, partial curve]",
COc1cc(/C=N/Nc2snc(SC)c2C#N)cc(OC)c1OC,"inconclusive [cytotoxic, partial curve]",

SMILES,Potency,"activity, negative = less viability"
CCOc1ccc2nc3ccc4[nH]onc4c3c2c1,"inconclusive [cytotoxic, single point]",
Nc1nc2ccc(OC(F)(F)F)cc2s1,"inconclusive [cytotoxic, partial curve]",
CCN(CC)CCN(C(=O)c1cc2ccccc2cc1OC)c1nc2ccc(OC)cc2s1,"inconclusive [cytotoxic, single point]",
CC(=O)Nc1sc(C)c(C)c1C(=O)OCC(=O)N(CC(C)C)c1c(N)n(Cc2ccccc2)c(=O)[nH]c1=O,inactive,
COc1ccc(C(=O)NNC(=O)c2ccccc2[N+](=O)[O-])cc1Br,"inconclusive [cytotoxic, single point]",
COc1ccc(C(=O)NCC(C)(C)SCc2c(C)cc(C)cc2C)cc1,"inconclusive [cytotoxic, single point]",
CCOc1ccc(C(=O)NNC(=O)C2CC(=O)N(c3ccc(C)cc3)C2)cc1 (configuration not stated),inactive,
CC(CC(=O)Nc1ccc2c(c1)c(=O)n(C)n2-c1ccc2ccccc2c1)C(F)(F)F (configuration not stated),"inconclusive [cytotoxic, full curve]",
CC(C)(C)c1ccc(-c2nc(C#N)c(NCc3cccnc3)o2)cc1,"inconclusive [cytotoxic, single point]",
COc1cccc(N(CC(=O)N2CCN(C)CC2)S(=O)(=O)c2ccccc2)c1,inactive,
COCCN(CCOC)C(=O)c1ccc(CSc2nc3ccccc3s2)cc1,"inconclusive [cytotoxic, single point]",
CC(C)(C)n1[nH]c2c3c(ccc2c1=O)C(=O)c1ccccc1C3=O,"inconclusive [cytotoxic, single point]",
COc1ccc(OCC(O)CNCCOc2ccccc2OC)c(C(C)(C)C)c1 (configuration not stated),inactive,
COc1ccc(N(C)C(=O)c2cc3c(Cl)nc4ccccc4c3s2)cc1,inactive,
C=CCn1c(=O)c2c(C)c(C)sc2n2c(Nc3ccccc3)nnc12,"inconclusive [cytotoxic, single point]",
O=C(NC1CCCCC1)c1cc(-c2cccc(Cl)c2)on1,,inconclusive: 27.6%
CCOC(=O)c1c(-c2ccccc2)csc1NC(=O)/C(C#N)=C/c1ccc(O)c(OC)c1,"inconclusive [cytotoxic, single point]",
O=C(COc1ccc(Cl)cc1)Nc1cccc(S(=O)(=O)NCc2ccco2)c1,"inconclusive [rising, partial curve, poor fit]",
CC(CN1CCN(Cc2ccccc2)CC1)OC(=O)c1ccco1 (configuration not stated),inactive,
COc1ccc(C(=O)/C(C#N)=N/Nc2ccccc2[N+](=O)[O-])cc1,active: 2.59 µM,
CC1(C(=O)NS(=O)(=O)c2ccccc2Cl)CCN1C(=O)c1ccccc1 (configuration not stated),,inconclusive: 34.3%
CCOC(=O)c1sc(NC(=O)CN2CCN(c3ccc(OC)cc3)CC2)nc1C,inactive,
Cc1nc2ccc(NC(=O)c3cccc(S(=O)(=O)N(C)c4ccccc4)c3)cc2s1,"inconclusive [cytotoxic, single point]",
